The results in this text go back to a collection of fitness landscapes (doi:10.1126/science.1257360).

First the molecules themselves.
B1: PhoQ; a variant is named by its letters at X, in order, P23837 (parent)
chain: MKKLLRLFFPLSLRVRFLLATAAVVLVLSLAYGMVALIGYSVSFDKTTFRLLRGESNLFYTLAKWENNKLHVELPENIDKQSPTMTLIYDENGQLLWAQRDVPWLMKMIQPDWLKSNGFHEIEADVNDTSLLLSGDHSIQQQLQEVREDDDDAEMTHSVAVNVYPATSRMPKLTIVVVDTIPVELKSSYMVWSWFIYVLSANLLLVIPLLWVAAWWSLRPIEALAKEVRELEEHNRELLNPATTRELTSLVRNLNRLLKSERERYDKYRTTLTDLTHSLKTPLXXLQXXLRSLRSEKMSVSDAEPVMLEQISRISQQIGYYLHRASMRGGTLLSRELHPVAPLLDNLTSALNKVYQRKGVNISLDISPEISFVGEQNDFVEVMGNVLDNACKYCLEFVEISARQTDEHLYIVVEDDGPGIPLSKREVIFDRGQRVDTLRPGQGVGLAVAREITEQYEGKIVAGESMLGGARMEVIFGRQHSAPKDE

This is one part of the list. Bounds are passed on as bounds.

This test covers variants of B1. In words: enrichment ratio after two sorts for PhoP signalling (ratio (wild type AVST 3.29)); higher = more functional. The settings on record: with PhoP (E. coli).
Regarding HPIV, the enrichment ratio was at most 0.25.

For FDCY, the enrichment ratio was at most 0.25.

RIYD: the enrichment ratio was at most 0.25.

In the case of MSFM, the enrichment ratio stood at 3.42.

On to VSMP, for which the enrichment ratio is at most 0.25.

For NEPV, the enrichment ratio is at most 0.25.

With KTIF, the enrichment ratio came to 0.425.

As for KHRH, the enrichment ratio was at most 0.25.

In the case of VGLK, the enrichment ratio was at most 0.25.

For KILD, the enrichment ratio is at most 0.25.

Regarding IHTL, the enrichment ratio was at most 0.25.

As for ISFR, the enrichment ratio is at most 0.25.

For IWTY, the enrichment ratio was at most 0.25.

Consider EVPQ, for which the enrichment ratio was at most 0.25.

As for PSTF, the enrichment ratio is at most 0.25.

As to KRPQ, the enrichment ratio was at most 0.25.

Consider QDTA, for which the enrichment ratio was at most 0.25.

As for GICG, the enrichment ratio was 15.9.

As for WRAG, the enrichment ratio is at most 0.25.

For the variant HPQC, the enrichment ratio is at most 0.25.

VYTT: the enrichment ratio was at most 0.25.

As for RIRC, the enrichment ratio is at most 0.25.

In the case of LGFC, the enrichment ratio came to 0.715.

Regarding RLDC, the enrichment ratio is at most 0.25.

Consider HLCM, for which the enrichment ratio was at most 0.25.

Consider GYYE, for which the enrichment ratio is at most 0.25.

Regarding TETT, the enrichment ratio turned out to be 25.2.

Turning to MEES, the enrichment ratio is at most 0.25.

As for LEIN, the enrichment ratio is at most 0.25.

Regarding GDTY, the enrichment ratio was at most 0.25.

In the case of KQCV, the enrichment ratio was at most 0.25.

For IHLT, the enrichment ratio was at most 0.25.

Turning to ICHH, the enrichment ratio was at most 0.25.

Consider RYCV, for which the enrichment ratio was at most 0.25.

With QKDL, the enrichment ratio was at most 0.25.

Consider IWME, for which the enrichment ratio is at most 0.25.

Consider EMAH, for which the enrichment ratio is at most 0.25.

Consider KTPS, for which the enrichment ratio is at most 0.25.

For SVHT, the enrichment ratio was at most 0.25.

In the case of SCMD, the enrichment ratio was 1.02.

Turning to DAPW, the enrichment ratio is at most 0.25.

On to AEVP, for which the enrichment ratio was at most 0.25.

For LTSQ, the enrichment ratio was at most 0.25.

For DSVA, the enrichment ratio was at most 0.25.

Take RWYA: the enrichment ratio is at most 0.25.

Regarding AGSV, the enrichment ratio came out at 9.75.

With TIPG, the enrichment ratio is at most 0.25.

As to FPMC, the enrichment ratio was at most 0.25.

As for CFRH, the enrichment ratio was at most 0.25.

As for MNSP, the enrichment ratio was at most 0.25.

For RSGK, the enrichment ratio was at most 0.25.

As for FICC, the enrichment ratio was at most 0.25.

With NIFG, the enrichment ratio was at most 0.25.

With ACHG, the enrichment ratio was at most 0.25.

For DVYV, the enrichment ratio is at most 0.25.

Regarding SHIG, the enrichment ratio is at most 0.25.

FCDL: the enrichment ratio was at most 0.25.

For EWSH, the enrichment ratio was at most 0.25.

GPVD: the enrichment ratio is at most 0.25.

KPRT: the enrichment ratio is at most 0.25.

For the variant NHFK, the enrichment ratio was at most 0.25.

Regarding AFCD, the enrichment ratio is at most 0.25.

On to ILLF, for which the enrichment ratio is at most 0.25.

With PMIR, the enrichment ratio is at most 0.25.

On to WLLL, for which the enrichment ratio is at most 0.25.

In the case of RETH, the enrichment ratio is at most 0.25.

In the case of LSSP, the enrichment ratio was at most 0.25.

As for LAVK, the enrichment ratio was found to be 0.334.

For the variant WTNP, the enrichment ratio was at most 0.25.

Turning to IQKF, the enrichment ratio is at most 0.25.

Take RPPD: the enrichment ratio is at most 0.25.

Regarding FTQW, the enrichment ratio was at most 0.25.

In the case of LWCF, the enrichment ratio was at most 0.25.

Turning to KKYV, the enrichment ratio was at most 0.25.

On to VLTF, for which the enrichment ratio was at most 0.25.

With PGAR, the enrichment ratio was determined as 3.76.

Turning to WKTY, the enrichment ratio is at most 0.25.

For the variant LHYK, the enrichment ratio was at most 0.25.

Take TAHH: the enrichment ratio amounted to 8.19.

Regarding EDYC, the enrichment ratio was at most 0.25.

In the case of MRFY, the enrichment ratio was at most 0.25.

For ICML, the enrichment ratio came to 6.1.

With LIYQ, the enrichment ratio was at most 0.25.

Consider IDYV, for which the enrichment ratio is at most 0.25.

In the case of TGEH, the enrichment ratio was at most 0.25.

For the variant SAFF, the enrichment ratio is at most 0.25.

Regarding QYWE, the enrichment ratio was at most 0.25.

With DPRF, the enrichment ratio was at most 0.25.

For WHNH, the enrichment ratio was at most 0.25.

As to HTDP, the enrichment ratio is at most 0.25.

Regarding DMLV, the enrichment ratio was at most 0.25.

As for TQPP, the enrichment ratio was at most 0.25.

On to MGPT, for which the enrichment ratio was at most 0.25.

Consider PYYT, for which the enrichment ratio was at most 0.25.

As to QLPS, the enrichment ratio is at most 0.25.

AIGS: the enrichment ratio is at most 0.25.

With EVMY, the enrichment ratio is at most 0.25.

In the case of NFPH, the enrichment ratio is at most 0.25.

Take GQDV: the enrichment ratio was at most 0.25.

Turning to HGHS, the enrichment ratio was at most 0.25.

Regarding VEEN, the enrichment ratio was at most 0.25.

For WDEI, the enrichment ratio was at most 0.25.

With RFFT, the enrichment ratio was at most 0.25.

Turning to WMWI, the enrichment ratio is at most 0.25.

SIKI: the enrichment ratio was at most 0.25.

Consider PVRD, for which the enrichment ratio is at most 0.25.

Regarding PDLG, the enrichment ratio is at most 0.25.

Take WWII: the enrichment ratio is at most 0.25.

As for AEYI, the enrichment ratio was determined as 3.12.

Take GQAR: the enrichment ratio is at most 0.25.

Regarding PLYD, the enrichment ratio is at most 0.25.

With DVVN, the enrichment ratio was at most 0.25.

With FCEP, the enrichment ratio was at most 0.25.

For QVAL, the enrichment ratio was 0.584.

As for VLRP, the enrichment ratio is at most 0.25.

As for KDIW, the enrichment ratio is at most 0.25.

Regarding SFEC, the enrichment ratio is at most 0.25.

Turning to WCSK, the enrichment ratio is at most 0.25.

Consider AYPC, for which the enrichment ratio is at most 0.25.

In the case of SFCN, the enrichment ratio stood at 0.422.

In the case of ENTI, the enrichment ratio is at most 0.25.

Take TKEI: the enrichment ratio was at most 0.25.

KPQD: the enrichment ratio is at most 0.25.

Turning to ERYM, the enrichment ratio was at most 0.25.

On to SYLC, for which the enrichment ratio was 0.631.

Turning to SANV, the enrichment ratio is at most 0.25.

Regarding SFGC, the enrichment ratio is at most 0.25.

As to YVDS, the enrichment ratio is at most 0.25.

On to NLPE, for which the enrichment ratio is at most 0.25.

Take AKDH: the enrichment ratio is at most 0.25.

On to MGCG, for which the enrichment ratio is at most 0.25.

With IAPD, the enrichment ratio is at most 0.25.

For the variant FFHV, the enrichment ratio is at most 0.25.

Take SKWG: the enrichment ratio was at most 0.25.

For the variant IGLV, the enrichment ratio was 6.7.

Consider KSYS, for which the enrichment ratio is at most 0.25.

For the variant EDPP, the enrichment ratio was at most 0.25.

In the case of MRVI, the enrichment ratio is at most 0.25.

Turning to QRSH, the enrichment ratio was at most 0.25.

Turning to RGID, the enrichment ratio is at most 0.25.

For the variant GRWR, the enrichment ratio is at most 0.25.

On to YMKA, for which the enrichment ratio was at most 0.25.

For GGIA, the enrichment ratio turned out to be 2.14.

Turning to MCQP, the enrichment ratio is at most 0.25.

Regarding FYPM, the enrichment ratio was at most 0.25.

Consider VYMW, for which the enrichment ratio was at most 0.25.

As for ALPR, the enrichment ratio was at most 0.25.

Turning to MRIH, the enrichment ratio was at most 0.25.

As to AIRV, the enrichment ratio is at most 0.25.

Consider KFVM, for which the enrichment ratio is at most 0.25.

Regarding GRNT, the enrichment ratio is at most 0.25.

Regarding APSL, the enrichment ratio was 0.536.

With HWFW, the enrichment ratio was at most 0.25.
